From the supplement of paper PMC10338343
± gives the standard deviation. The entries are a selection whose mix differs from that of the whole data set.

system: MIWI (PIWIL1) piRISC loaded with L1MC piRNA (30 nt); assay: pre-steady-state target cleavage rate (min^-1); MIWI and MILI are mouse PIWI proteins and EfPiwi is from a freshwater sponge; tags in brackets are library labels; higher = faster piRNA-guided slicing of the target; conditions: guide: L1MC piRNA 5'p-UAACUAAAUACUAUGCAAGCUGUAGGUCCU; auxiliary factor: 500 nM mouse GTSF1
Summary of the method: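 At 33 °C in HEPES–potassium acetate buffer, a transcribed, DNA-blocked target RNA library […] was exposed for 0–8 or 0–960 min to 1 nM active affinity-purified piRISC carrying a single synthetic guide, with or without 500 nM GTSF1 partner protein. Uncleaved targets were sequenced and normalised to depth and to weakly complementary targets. With three trials pooled and k3 capped at 0.0001 min^-1, a burst-and-steady-state fit produced the pre-steady-state cleavage rate.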
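Further: 1 nM active piRISC with 0.1 nM target library at 33 °C single turnover.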

First: UCCUGCUACAGCUUGCAUAGUAAUUUGUUA
Second: UCCUGGAACAGCUUGCAUUGUAUUUAGAAA
The “pre-steady-state target cleavage rate” value of the first is higher: 0.446 ± 0.049 for the first, 0.205 ± 0.034 for the second.

Going from UCCUGGAUGAGCUUGCUUAGUAUUUAGUAA to UCCUGGAACAGCAUGGAUAGUAUUUAGUUA, the “pre-steady-state target cleavage rate” value rises from 0.299 ± 0.037 to 1.18 ± 0.06.

First: UCCUGGAUCUGCUAGCAUAGUAUUUAGUUA
Second: UCGUCCUACAGCUUGCAUAGUAUUUAGUUA
The “pre-steady-state target cleavage rate” value of the first is lower: 0.302 ± 0.032 for the first, 1.42 ± 0.041 for the second.

Compared with UCCUGGAUCAGCUUGCAUAGUAUUUACAAA, UGGUGGUACAGCUUGCAUAGUAUUUAGUAA is higher in “pre-steady-state target cleavage rate” value: 0.292 ± 0.031 for the first, 0.764 ± 0.042 for the second.

Compared with AGGACCUACAGCUUGCAUAGUAUAAAGUAA, UCGACCUACUGCUUGGAUAGUAUUUAGUUA is higher in “pre-steady-state target cleavage rate” value: 0.443 ± 0.069 for the first, 1.67 ± 0.068 for the second.

Going from UCCUGCUACAGCUUGCAUAGUAUUUAGUA to UCCUGCUACAGCUUCAUAGUAUUUAGUUA, the “pre-steady-state target cleavage rate” value rises from 0.422 ± 0.071 to 0.646 ± 0.04.

UGGACCUACAGCUUGCAUAGUAAUUAGUUA and UCCUGGAUCAGCUUGCAUAGUAUUUAGUCA are within error of each other in “pre-steady-state target cleavage rate” value: 0.977 ± 0.059 for the first, 1.05 ± 0.068 for the second.

First: UCCUGGAUCAGCUUGCAUAGUAUUAACUUA
Second: UCCUGGAUGAGCUUGCAUAGUAUUCAGUUA
The “pre-steady-state target cleavage rate” value of the first is lower: 0.108 ± 0.02 for the first, 0.311 ± 0.031 for the second.

First: UCCUGGAUCAGCUUGCAUAGUAUUUUGUUA
Second: UCCUCCUACACCUUGGAUAGUAUUUAGUUA
The “pre-steady-state target cleavage rate” value of the first is higher: 0.75 ± 0.036 for the first, 0.502 ± 0.071 for the second.

Compared with UCCUGCUACAGCUUGCAUAGUAUAAAGUUA, UGGACCUACAGUCUUGCAUAGUAUUUAGUUA is higher in “pre-steady-state target cleavage rate” value: 0.469 ± 0.043 for the first, 1.15 ± 0.087 for the second.

UGGACCUACAGCUUGCAUAGUAUUUAAGUUA and UGGGACCUACAGCUUGCAUAGUAUUUAGUUA are within error of each other in “pre-steady-state target cleavage rate” value: 1.07 ± 0.07 for the first, 1.11 ± 0.1 for the second.

Going from UCGACCUACAGCUUGCAUAGUAUUUUGUAA to UCCUGCUACACCUUGCAUAGUAUAUAGUUA, the “pre-steady-state target cleavage rate” value falls from 0.412 ± 0.037 to 0.308 ± 0.045.
